Laboratory results from article PMC9443850, “There is no F in APC: Using physiological fluoride-free solutions for high throughput automated patch clamp experiments” (Frontiers in Molecular Neuroscience, 2022).
Read-outs that look alike come from different tables or passages of the source. Values belong to the molecule of their own block, whether it stands above or below them.

Experiments:
[1] = molecular target: KCa3.1 (SK4) expressed in CHO cells (Homo sapiens, UniProt O15554); experiment: KCa3.1 current, voltage ramp, automated patch clamp (SyncroPatch 384), internal perfusion of free Ca2+ / external Ba2+; conditions: for IC50: read-out: IC50 for external Ba2+, 4X chips, mean of 2 chips ± S.D.; for EC50: read-out: EC50 for internal free Ca2+, mean ± S.E.M.
[2] = molecular target: NaV1.5 expressed in CHO cells (Homo sapiens, UniProt Q14524); experiment: NaV1.5 peak current, automated patch clamp (SyncroPatch 384), 3-step protocol and activation/inactivation IV; conditions: both standard and fluoride-free internal solution

SMILES: [Ba+2] [Ba^2+]
- IC50 ([1]; fluoride-free internal solution, -120 mV): 158000 ± 15000 nM
- IC50 ([1]; standard internal solution, -120 mV): 170000 ± 8000 nM
- increase of IC50 at 60 mV vs -120 mV ([1]; standard and fluoride-free internal solution): ~3 fold

- EC50 ([1]; fluoride-free internal solution, 60 mV, n = 121): 635 ± 20 nM
- EC50 ([1]; fluoride-free internal solution, -120 mV, n = 121): 676 ± 22 nM
- EC50 ([1]; standard internal solution, 60 mV, n = 66): 808 ± 50 nM
- EC50 ([1]; standard internal solution, -120 mV, n = 66): 773 ± 44 nM
SMILES: [Ca+2] [Ca^2+]

SMILES: CCCCNc1ccc(C(=O)OCCN(C)C)cc1 [Tetracaine]
- decrease of IC50 from holding potential -120 mV compared with -100 and -80 mV [2]: 4–7 fold
